# Data taken from PubChem BioAssay AID1745853 (National Center for Advancing Translational Sciences (NCATS), 2022).
# This is one part of the list. Further columns of the screen follow, without active or inactive calls.
# Experiments:
# Assay in all cases: Primary Screen for Target Class Profiling of Small Molecule Inhibitors of Methyltransferases
# [1] = molecular target: Glycine N-methyltransferase (Homo sapiens) (UniProt Q14749); conditions: purified enzyme, MTase-Glo SAH luminescence; measured here: GNMT inhibition; at 40 µM; stronger effect = lower value
# In short: (§1)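 Each enzyme was reacted with SAM and its substrate, with compounds tested once at 40 uM; SAH formed was read by MTase-Glo luminescence.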
# [2] = molecular target: Guanidinoacetate N-methyltransferase (Homo sapiens) (UniProt Q14353); conditions: purified enzyme, MTase-Glo SAH luminescence; measured here: GAMT inhibition; at 40 µM; stronger effect = lower value
# In short: as §1
# [3] = molecular target: Histamine N-methyltransferase (Homo sapiens) (UniProt P50135); conditions: purified enzyme, MTase-Glo SAH luminescence; measured here: HNMT inhibition; at 40 µM; stronger effect = lower value
# In short: as §1
# [4] = molecular target: Nicotinamide N-methyltransferase (Homo sapiens) (UniProt P40261); conditions: purified enzyme, MTase-Glo SAH luminescence; measured here: NNMT inhibition; at 40 µM; stronger effect = lower value
# In short: as §1
# [5] = molecular target: Phenylethanolamine N-methyltransferase (Homo sapiens) (UniProt P11086); conditions: purified enzyme, MTase-Glo SAH luminescence; measured here: PNMT inhibition; at 40 µM; stronger effect = lower value
# In short: as §1
# % is scaled to controls: 0 for no effect and ±100 for the full control effect.
SMILES,"activity change, negative = inhibition [1] [%]","activity change, negative = inhibition [2] [%]","activity change, negative = inhibition [3] [%]","activity change, negative = inhibition [4] [%]","activity change, negative = inhibition [5] [%]"
Cc1ccc(CNC(=O)C2(C)Cn3nc(C(=O)NCCN4CCCC4)cc3C(=O)N2C)cc1 (configuration not stated),7.35,0.486,2.43,7.37,4.42
COC(=O)c1ncn2c1C(=O)N(c1cccc(SC)c1)C(C)(C(=O)NC1CCCCC1)C2 (configuration not stated),1.08,0,-3.36,0.268,2.26
Cc1ccc(Cn2c(=O)c3ccc(C(=O)NCC(C)C)cc3n3c(=O)n(C)nc23)cc1,-1.15,4.16,0.571,2.5,1.33
CCc1cc2c(cc3n2CC(C)(C(=O)NC2CCCCC2)N(CCN2CCN(C)CC2)C3=O)s1 (configuration not stated),3.51,0.56,4.94,10.7,3.79
CC(=O)OC12COC1CC(O)C1(C)C(=O)C(O)C3=C(C)C(OC(=O)C(O)C(NC(=O)OC(C)(C)C)c4ccccc4)CC(O)(C(OC(=O)c4ccccc4)C21)C3(C)C (configuration not stated),-0.484,,0.205,,
COCC(=O)N1CCC(O)(c2csc(CN3CCc4ccccc4C3)n2)CC1,-4.15,-1.75,-1.76,1.95,0.934
CCOc1ccc(N2C(=O)c3cc4sc(CC)cc4n3CC2(C)C(=O)NC2CCC(C)CC2)cc1 (configuration not stated),5.45,0.614,10.1,6.11,2.48
CC(C)CCNC(=O)C1(C)Cn2c(cc3ccccc32)C(=O)N1Cc1cccc(F)c1 (configuration not stated),3.45,1.13,2.44,0.788,-2.96
C[C@@H]1CN(C(=O)c2ccc3c(c2)N(C)C(=O)CO3)C[C@@]1(O)C1CCC1,-2.35,-1.62,-0.266,-1.28,2.09
Cc1cc(C)cc(NC(=O)CCc2nnc3n(Cc4ccc(Cl)cc4)c(=O)c4ccccc4n23)c1,-0.712,1.23,7.71,6.5,0.736
C[C@H](NC(c1cccc2[nH]c(=O)c(=O)[nH]c12)P(=O)(O)O)c1ccc(Br)cc1 (some centres not stated),1.73,8.66,1.28,-10.8,-3.69
OC[C@H]1O[C@@H](OCCc2ccccc2)[C@H](O[C@@H]2OC[C@](O)(CO)[C@H]2O)[C@@H](O)[C@@H]1O,4.67,3.69,-0.536,-8.81,3.71
CCCOCCNC(=O)c1c(C)noc1-c1ccc(OC(F)(F)F)cc1,0.012,-0.196,0.694,-0.106,6.59
COc1cc(Nc2nc(SCC(=O)NCCC(C)C)nc3ccccc23)cc(OC)c1,-5.65,3.18,-7.25,-14,-5.78
CCOC(=O)c1cc2n(n1)CC(C)(C(=O)NCc1ccc(F)cc1)N(c1ccc(C)cc1C)C2=O (configuration not stated),-4.62,0.327,-8.53,-10.3,-4.76
Cc1cccc(Cn2nc3n(C)c(=O)c4ccc(C(=O)NC5CCCCC5)cc4n3c2=O)c1,2.5,0,6.4,6.53,4.83
CC(C)Cn1c(=O)c2ccccc2n2c(CCC(=O)NCCc3ccc(Cl)cc3)nnc12,-11.7,2.74,-0.821,-30,-4.78
Cc1cccc(-c2nnn3c2nc(NCc2ccc(F)cc2)c2ccccc23)c1,-1.95,0,1.4,4.92,-3.28
Cc1cc(C(=O)N[C@H]2[C@H](O)[C@H](O)C[C@@H]2c2cccnc2)n(C)n1,-3.93,-7.03,-4.28,-4.59,-4.65

SMILES,"activity change, negative = inhibition [1] [%]","activity change, negative = inhibition [2] [%]","activity change, negative = inhibition [3] [%]","activity change, negative = inhibition [4] [%]","activity change, negative = inhibition [5] [%]"
CCCN1C(=O)c2c(C(=O)NCc3cccc(C)c3)ncn2CC1(C)C(=O)NCc1ccc(OC)cc1 (configuration not stated),1.58,0,-0.061,7.44,5.2
C[C@]1(O)CCN(C(=O)c2cccc(Cn3cccn3)c2)C[C@@H]1O,-5.05,-8.24,-2.21,-7.48,-5.22
CC(=O)Nc1ccc(CC(=O)N2CCC3(CCc4nn(Cc5ccccc5)c(=O)n4CC3)CC2)cc1,-2.16,0.014,3.1,-2.93,1.6
CS(=O)(=O)N1CCC(C2CCN(C(=O)NC3CCCC3)C2)CC1 (configuration not stated),2.75,-2.19,1.62,-3.08,-8.32
Cc1ccc(NC(=O)Cn2c(=O)oc3cc(S(=O)(=O)N4CCCC4)ccc32)c(Cl)c1,1.06,-1.94,9.15,13.9,0.339
CCN(CC)CCNC(=O)c1cc(S(C)(=O)=O)ccc1OC,12.2,12.1,7.58,-7.03,0.962
CC1CC(C)CN(S(=O)(=O)c2ccc3c(c2)oc(=O)n3CC(=O)N2CCc3ccccc32)C1 (configuration not stated),1.81,-1.74,6.85,-0.846,-7.65
O=C(Nc1ccccc1Cl)N1Cc2c(sc3c2CCCC3)-n2cccc2C1c1ccccc1 (configuration not stated),2.1,0,2.6,1.5,4.41
CCO[C@@H]1OC(=O)C[C@@H]1NC(=O)[C@@H]1CCCN1C(=O)[C@@H](NC(=O)c1ccc(N)c(Cl)c1)C(C)(C)C,3.29,-3.13,-0.075,-15.2,-5.74
O=C(NCCc1ccccn1)c1cccnc1OC1CCNCC1,-1.46,-4.17,-4.28,-4.45,-6.93
O=C(CCCN1CC=C(n2c(=O)[nH]c3ccccc32)CC1)c1ccc(F)cc1,-25.9,-0.579,2.34,-17.5,-20.2
COc1cccc(NC(=O)c2cc3n(n2)CC(C)(C(=O)NC2CCCCCC2)N(C)C3=O)c1 (configuration not stated),2.07,0,4.3,2.69,2.17
C[C@@H](Nc1ncnc2[nH]c(-c3ccc(O)cc3)cc12)c1ccccc1,-34.1,0.587,-41.4,-39.6,-47
CC/C=C\CCO[C@@H]1O[C@H](CO[C@@H]2OC[C@H](O)[C@H](O)[C@H]2O)[C@@H](O)[C@H](O)[C@H]1O,1.63,3.82,6.17,-9.5,-3.46
C=Cc1ccc(CSc2nnc3n(CC(C)C)c(=O)c4ccccc4n23)cc1,-2.43,1.45,5.44,-8.31,5.01
CC(CN1C(=O)c2ccc(-c3ccco3)n2CC1(C)C(=O)NC1CCCCCCC1)c1ccccc1 (configuration not stated),-7.21,2.34,-1.68,-17.2,-5.01
COC1=CC(=O)C[C@@H](C)[C@@]12Oc1c(Cl)c(OC)cc(OC)c1C2=O,1.23,6.13,9.76,-8.4,-0.757
CCc1ccc(-c2cc3n(n2)CC(C)(C(=O)NC2CCCCC2)N(Cc2cccs2)C3=O)cc1 (configuration not stated),1.47,6.8,-1.26,-0.453,-2.52
